Laboratory results from article PMC3750045, “Human RNase H1 Is Associated with Protein P32 and Is Involved in Mitochondrial Pre-rRNA Processing” (PLoS ONE, 2013).
These are yes or no findings as the source states them, for the method shown. For part of these data: In cells and extracts the contact can be indirect. Some binding calls cover weakened binding; strength is not graded here. For part of these data: Sequences can lack the tags named with a protein.

T1: GST-P32 fusion protein (human, UniProt Q07021 74-282)
T1 construct: human P32 in the pGEX 3X vector; also called GST tagged P32; recombinant P32; source: E. coli, purified (GST beads); not shown: GST, N-terminal, kept
T1 sequence (looked up): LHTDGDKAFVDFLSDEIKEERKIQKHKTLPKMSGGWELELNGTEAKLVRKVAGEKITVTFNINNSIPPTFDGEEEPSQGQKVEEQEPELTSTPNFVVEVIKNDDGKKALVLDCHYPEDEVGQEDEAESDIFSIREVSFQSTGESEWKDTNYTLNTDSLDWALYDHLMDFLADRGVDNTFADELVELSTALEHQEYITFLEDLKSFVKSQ


How the values were obtained:
[1] = molecular target: HA-tagged human P32 (human) (UniProt Q07021); test: co-IP; anti-HA antibody on extracts of Flag-H1 and Flag-H2 stable HEK lines and control HEK cells, all transfected with HA-P32 plasmid; western blots
[2] = molecular target: HA-tagged human P32 (human) (UniProt Q07021); test: co-IP; anti-HA antibody on extracts of control HeLa cells or HeLa cells transfected with HA-P32 plasmid; western blots with P32, RNase H1 or H2 antibodies
GST-P32 fusion protein [3] = molecular target: T1, GST-P32 fusion protein; test: pull-down; GST or GST-P32 on GST beads incubated with RNase H1 or its deletion mutants DL1, DL2; PBS or 50 mM Tris with 1 mM TCEP, NaCl 0-950 mM (150–450 mM for the deletion mutants), pH 6.0–10.0; room temperature; glutathione elution, Western blot; binding reduced above 150 mM NaCl and above pH 8; both purified
GST-P32 fusion protein [4] = molecular target: T1, GST-P32 fusion protein; test: condition: 0.025–2.0 µg/400 µl (methods); 150-450 mM NaCl; pull-down; GST or GST-P32 on GST beads incubated with RNase H1 or its deletion mutants DL1, DL2; PBS or 50 mM Tris with 1 mM TCEP, NaCl 0-950 mM (150–450 mM for the deletion mutants), pH 6.0–10.0; room temperature; glutathione elution, Western blot; binding reduced above 150 mM NaCl and above pH 8; both purified

Binder | binding [1] | binding (GST-P32 fusion protein [4]) | also measured
endogenous human RNase H1 (enzyme, UniProt O60930 1-286) MSWLLFLAHRVALAALPCRRGSRGFGMFYAVRRGRKTGVFLTWNECRAQVDRFPAARFKKFATEDEAWAFVRKSASPEVSEGHENQHGQESEAKASKRLREPLDGDGHESAEPYAKHMKPSVEPAPPVSRDTFSYMGDFVVVYTDGCCSSNGRRRPRAGIGVYWGPGHPLNVGIRLPGRQTNQRAEIHAACKAIEQAKTQNINKLVLYTDSMFTINGITNWVQGWKKNGWKTSAGKEVINKEDFVALERLTQGMDIQWMHVPGHSGFIGNEEADRLAREGAKQSED | binds |  | binding [2]: binds
N-terminal Flag-tagged human RNase H1 (enzyme, UniProt O60930 1-286) MSWLLFLAHRVALAALPCRRGSRGFGMFYAVRRGRKTGVFLTWNECRAQVDRFPAARFKKFATEDEAWAFVRKSASPEVSEGHENQHGQESEAKASKRLREPLDGDGHESAEPYAKHMKPSVEPAPPVSRDTFSYMGDFVVVYTDGCCSSNGRRRPRAGIGVYWGPGHPLNVGIRLPGRQTNQRAEIHAACKAIEQAKTQNINKLVLYTDSMFTINGITNWVQGWKKNGWKTSAGKEVINKEDFVALERLTQGMDIQWMHVPGHSGFIGNEEADRLAREGAKQSED | binds |  | 
N-terminal His-tagged human RNase H1 (recombinant) (enzyme, UniProt O60930 1-286, looked up, human RNase H1, 286 residues (domains printed as aa1-72, aa73-135, aa136-286), in the pET 3C vector; also called His-H1; His-tag RNase H1; source: E. coli BL21 (DE3), lysed in 6 M guanidine, purified (Ni-NTA agarose)) MSWLLFLAHRVALAALPCRRGSRGFGMFYAVRRGRKTGVFLTWNECRAQVDRFPAARFKKFATEDEAWAFVRKSASPEVSEGHENQHGQESEAKASKRLREPLDGDGHESAEPYAKHMKPSVEPAPPVSRDTFSYMGDFVVVYTDGCCSSNGRRRPRAGIGVYWGPGHPLNVGIRLPGRQTNQRAEIHAACKAIEQAKTQNINKLVLYTDSMFTINGITNWVQGWKKNGWKTSAGKEVINKEDFVALERLTQGMDIQWMHVPGHSGFIGNEEADRLAREGAKQSED |  |  | binding (GST-P32 fusion protein [3]): binds
human RNase H1 deletion mutant DL1 (domain or fragment, UniProt O60930 74-286) SASPEVSEGHENQHGQESEAKASKRLREPLDGDGHESAEPYAKHMKPSVEPAPPVSRDTFSYMGDFVVVYTDGCCSSNGRRRPRAGIGVYWGPGHPLNVGIRLPGRQTNQRAEIHAACKAIEQAKTQNINKLVLYTDSMFTINGITNWVQGWKKNGWKTSAGKEVINKEDFVALERLTQGMDIQWMHVPGHSGFIGNEEADRLAREGAKQSED |  | no binding | 
human RNase H1 deletion mutant DL2 (domain or fragment, UniProt O60930 130-286) RDTFSYMGDFVVVYTDGCCSSNGRRRPRAGIGVYWGPGHPLNVGIRLPGRQTNQRAEIHAACKAIEQAKTQNINKLVLYTDSMFTINGITNWVQGWKKNGWKTSAGKEVINKEDFVALERLTQGMDIQWMHVPGHSGFIGNEEADRLAREGAKQSED |  | no binding | 
